Consider 88 sequences from the supplement of paper PMC11417369.

± gives the standard deviation of the averaged measurements. This is one part of the list.

This assay deals with PfAP2-LT AP2 domain (GST-tagged). As to the kind of experiment: gcPBM binding intensity (ln(normalized median fluorescence intensity)); higher = stronger DNA binding. Summed up:
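The highest Masliner-normalised natural-log median intensity across replicate spots of either probe orientation is reported as binding intensity. GST-tagged P. falciparum DNA-binding domains expressed in E. coli were applied for 1 h to an Agilent 4 × 180k array of primer-extended double-stranded 36-bp intergenic genomic probes plus negative controls, and bound protein was detected with Alexa488 anti-GST antibody and scanned at 488 nm.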
For the sequence “TATACGTGAATGACAGTGCATTTCAAAAGTATAAAA [GTGCAC_site9887]”, the “gcPBM binding intensity (ln)” value amounted to 8.89 ± 0.52.
As to “TGTGTAATATTCTGTTGTACATAACTCATAAATAAA [XGTACX_site5308]”, the “gcPBM binding intensity (ln)” value worked out at 8.46 ± 0.36.
Consider “TATATATCCTCTGAATGTACTTGTTTAATAATGTAG [XGTACX_site4332]”, for which the “gcPBM binding intensity (ln)” value was 8.55 ± 0.47.
In the case of “ATAATATAATATATATGTACACATCCTTTTTGTGTA [XGTACX_site2879]” it was 8.96 ± 0.3; in that of “TAAAAGTAAAAAGGTAGTACCTAAATAATATATATA [XGTACX_site8399]”, 8.76 ± 0.5; in that of “ATAAGATAGGCATATACACACATTTATTTACAGATA [CACACA_site5754]”, 9.09 ± 0.31.
To “AGTAGGCATATTGGTTGTACAAAAAAATTATGCACC [XGTACX_site8925]” belongs 8.99 ± 0.53; to “TTTTTTTTTTCTCTCGCACACATTTTTTAAAATGAG [CACACA_site2607]”, 8.97 ± 0.57.
To “ATATTTATATAGATGTGTACATAAATATAATAACAT [XGTACX_site1681]” belongs 8.93 ± 0.45.
For the sequence “ATATATATATATGTTTATTTATTTGAACGATTGTGG [CACACA_negctrl_site828]”, the “gcPBM binding intensity (ln)” value stood at 9.16 ± 0.36.
To “GACTCTTAAAAAATTTGTACCCACATAAATAATATA [XGTACX_site4313]” belongs 8.47 ± 0.4; to “TTTGGGTATACACATACATGCATGTCCTTATATATA [TGCATGCA_site84]”, 9.31 ± 0.39; to “ATATCATAAATTTATGCATGTTCTTTCTTCAACTCT [TGCATGCA_site992]”, 8.91 ± 0.54.
To “ATTATTTATTTATTTTTTTTTTTTTTCTCTTTTCCT [GTGCAC_negctrl_site656]” belongs 8.59 ± 0.72; to “ATGATAGTAATTAATAGTACTTTTTTTGATACAAAA [XGTACX_site4288]”, 8.43 ± 0.42; to “TCGTGTTTTAAAAAAATGAAGAAAAGTAAAAAAAAA [XGTACX_negctrl_site23]”, 8.43 ± 0.52.
In the case of “TAATATGAATATATATGTACATACAATTTGTTATAT [XGTACX_site5815]” it was 8.92 ± 0.28; in that of “ATTAAATGTATGACTTGTACATAAAATAAAAAAAAA [XGTACX_site6555]”, 8.79 ± 0.5; in that of “TAAAGATATAAATGCACACGTATTAAAAAAAAAATA [CACACA_site952]”, 9.01 ± 0.44.
In the case of “TTATCATTACATGAGTGTACATTATTATATTTTTTT [XGTACX_site7845]”, the “gcPBM binding intensity (ln)” value was 8.91 ± 0.42.
To “GAAAGAAAGAAAGAAAGTACATATAAAAATATACAT [XGTACX_site7299]” belongs 8.8 ± 0.5.
For the sequence “ATATATTTTTTTTTTTGTACGTATATTTATATAATT [XGTACX_site8719]”, the “gcPBM binding intensity (ln)” value came to 8.9 ± 0.38.
Regarding “CAAGAATTAAAATAAAGTACAAAAGTAACAACTTTT [XGTACX_site1474]”, the “gcPBM binding intensity (ln)” value was 8.68 ± 0.52.
Consider “AAAAAAAAGGAAAAGGGTACAAAACCATACTTACAT [XGTACX_site4783]”, for which the “gcPBM binding intensity (ln)” value amounted to 8.96 ± 0.49.
In the case of “ATTAGTGACATTATTACACACAAAAGAAAACAGAAA [CACACA_site3984]” it was 9.13 ± 0.39.
To TGAATCTATATACAGGTGCGTAAAAAATAACTTATA belongs 8.62 ± 0.52.
In the case of “GTATCATAAAAGTATACACACATACATACATATGTA [CACACA_site5456]”, the “gcPBM binding intensity (ln)” value was found to be 9.07 ± 0.32.
Consider “GCACACATATAATTAAACATATATTTGTATTATTTT [GTGCAC_negctrl_site327]”, for which the “gcPBM binding intensity (ln)” value came out at 9.03 ± 0.51.
For “TGTATGATTATGTTGTGTACGTAAAATATGAAAAAT [XGTACX_site1720]”, the “gcPBM binding intensity (ln)” value turned out to be 8.88 ± 0.45.
To “ATCTCTACAAAGTGCACACACGTAAAAACATATATA [CACACA_site6046]” belongs 9.31 ± 0.35.
To “ATTTTCCTTTAATTATGTACTTATGTAATAATAATG [XGTACX_site2612]” belongs 8.62 ± 0.46; to “TTTTAATGTATATTTTGTACGTATTATTAATATTCG [XGTACX_site8453]”, 8.82 ± 0.5.
Turning to “TATCCTAATGCTACCACACACACAAAAACAAATAAT [CACACA_site2609]”, the “gcPBM binding intensity (ln)” value turned out to be 9.39 ± 0.29.
“AATATTTATGGGTGCACACAAACATACATATATATA [CACACA_site3395]”: the “gcPBM binding intensity (ln)” value is 9.23 ± 0.49.
To “CCTTACTTCTTATAAAGTACCCAATGATATACATTA [XGTACX_site1554]” belongs 8.57 ± 0.45; to “ATGTTGAAAGGAAAAAATAATAAAATCGATATATTA [CACACA_negctrl_site549]”, 8.54 ± 0.52; to “AAAAAAAAGAATAGAGCATGCAAAATATATGAAATA [TGCATGCA_site933]”, 9.23 ± 0.56.
To “AGTATATAAAATACTGTATCGATGGGGGAGGGCGCA [CACACA_negctrl_site1612]” belongs 10 ± 0.44; to “ACAAATAAATAAAAAACACACACAAATAAATAAATA [CACACA_site8708]”, 9.57 ± 0.38; to “TAATAATAAAATATTTGTACATATAAAATATGGCTG [XGTACX_site7904]”, 8.59 ± 0.34.
In the case of “AATATAATGCAATATACACACATATATTTCTCTTTT [CACACA_site7276]” it was 8.93 ± 0.36; in that of “TATAAAAAATAATTATCATGAAATATATGATCATCA [TGCATGCA_negctrl_site137]”, 8.52 ± 0.36; in that of “ATTATTATTTATATGATACACACGTACATATACGCA [CACACA_site3823]”, 8.98 ± 0.4.
As to “TATATTTTTTATAAATGTACATGGATAGGCATAAAC [XGTACX_site8401]”, the “gcPBM binding intensity (ln)” value stood at 8.73 ± 0.4.
Consider “TTAAAAAAAATATAATGTACTTGTAGAATTATATTT [XGTACX_site6220]”, for which the “gcPBM binding intensity (ln)” value was 8.2 ± 0.41.
On to “ATATGAATAAATAAAAGTACATACATAATGTATTAT [XGTACX_site5969]”, for which the “gcPBM binding intensity (ln)” value amounted to 8.88 ± 0.45.
In the case of “TCAAAAATGAGTTACACACACACATATATATATATA [CACACA_site2229]” it was 9.87 ± 0.19; in that of “ATATATTTATGTATCACACACAAAAAAAAAAAATAA [CACACA_site255]”, 9.23 ± 0.5.
To “AATTTTTTTCTCCAAGTGCATTAGAACATTAACGTA [GTGCAC_site9413]” belongs 8.38 ± 0.43; to “AAGCGAATATATATCACACACAAAAAAATCAGACTA [CACACA_site2108]”, 9.34 ± 0.45.
In the case of “AACTAATAAAAAAAAAGTACACAATATGTAAATAAC [XGTACX_site5263]”, the “gcPBM binding intensity (ln)” value worked out at 9.26 ± 0.43.
With “AATTATTGTGAAGGGAAAACAAAAAAGTTTATAATT [CACACA_negctrl_site1337]”, the “gcPBM binding intensity (ln)” value turned out to be 8.72 ± 0.52.
In the case of “AACAAATATATTAACACACAAACATATAAACCAATG [CACACA_site3970]” it was 9.21 ± 0.37; in that of “TATATATTATATATATGTACATACTTTTTACGTTCA [XGTACX_site2493]”, 9.05 ± 0.66.
To “ACCACATTTTTTTTTGCATGTTGTTTAAAAAAAGGC [TGCATGCA_site137]” belongs 8.58 ± 0.44; to “AAATTAATTAAATATACACACATATATAGATATATA [CACACA_site6321]”, 8.84 ± 0.42.
In the case of AGTATAAGCATTATTGTGCACATAATTATAATTTTT it was 8.91 ± 0.33; in that of “AGTTTAAATTAAATTACACACTACGAATAATATATT [CACACA_site7811]”, 8.72 ± 0.4.
For “AATAATGAAACAGGAAAAAAATATTGTTAAAATGTA [XGTACX_negctrl_site400]”, the “gcPBM binding intensity (ln)” value came out at 8.84 ± 0.42.
To “TATATATTAATAAATAGTACCCGTGGAATTTATATT [XGTACX_site5855]” belongs 8.68 ± 0.39; to “ATTGTTCTCCAAAAGTGTACGTATTATTTTTCTGGA [XGTACX_site1404]”, 8.8 ± 0.33; to “GTTGCAATTAACACTAGTACATATAAGTAGTTTATT [XGTACX_site2063]”, 8.9 ± 0.43.
To “TATATATAATATATATGTACATAATATATTTTATAT [XGTACX_site2909]” belongs 8.53 ± 0.39; to “TAAAACACTCATGGCACACATAAAACATTTTTATGA [CACACA_site3574]”, 8.87 ± 0.48.
To “TGGGAAAATAATATTTATTTTATATATAAATATATA [CACACA_negctrl_site121]” belongs 8.14 ± 0.46; to “AAAATACTAGATAGGGGAAAAAAAAAAAAAAAAAAA [CACACA_negctrl_site1732]”, 8.52 ± 0.49; to “AACATGAAAATATATGCATTTGTATATATATATATA [TGCATGCA_negctrl_site16]”, 9.38 ± 0.18.
“TATTGTAATATTAGCACACATTACCTCACTACAAAT [CACACA_site5419]”: the “gcPBM binding intensity (ln)” value is 9.07 ± 0.24.
In the case of “AATAAAACCCCGAAATCACACATTAAATGAAAAATA [CACACA_site4732]” it was 9.23 ± 0.19; in that of “ATAAATGATAAAATTGCATGTGAATGTGAAAATATT [TGCATGCA_site251]”, 8.99 ± 0.47; in that of “AAAGCACCCATGCACACACACAAAGGAAAAGAAAAA [CACACA_site6249]”, 9.73 ± 0.38.
In the case of “TCCATATATTTTAAAAGTACACATAAAAATTATTTA [XGTACX_site8127]” it was 8.26 ± 0.37; in that of “AATGGAAAAATAGGCACACACACATATATACATATA [CACACA_site1298]”, 9.79 ± 0.45; in that of “TTGTTTTTCTTTGAATGTACTTAATGATTTCCAATT [XGTACX_site2499]”, 8.72 ± 0.48.
Take “AAGTTAATGAAAAAATGTACCCAGAGTATTTTAAAA [XGTACX_site2997]”: the “gcPBM binding intensity (ln)” value turned out to be 8.6 ± 0.48.
For “AAAAAAAAAAAAGATTGTACAGAATACTTTTAAAAT [XGTACX_site3576]”, the “gcPBM binding intensity (ln)” value turned out to be 8.45 ± 0.55.
In the case of “TAAAATAAAACAAACACACACACACGGACACAAAAA [CACACA_site7754]” it was 10.4 ± 0.34; in that of “ATATAAATAAAATATACACACATACTGTTCATTTAA [CACACA_site7880]”, 8.88 ± 0.38; in that of “TTTTTTTTTTATTTTGCACACTTCTAATTTAGTTCT [CACACA_site5828]”, 9.15 ± 0.59.
Take “ATCATATATGTTATTACACACGTTATGTTATTATAA [CACACA_site2712]”: the “gcPBM binding intensity (ln)” value was 9.07 ± 0.29.
To “GTGCATAGATGATATACACACAATATAATAGTATGT [CACACA_site5373]” belongs 9.26 ± 0.33; to “TTAATTTCAAGTAGAAGTACTTTTATGATTGTGAGG [XGTACX_site1247]”, 8.55 ± 0.35; to “TATAATTTAGCTTGTGCATGCAGGTGCTACATTTGT [TGCATGCA_site217]”, 9 ± 0.38.
To “TTGTAAGAAAAACACACACACACATATATATATATA [CACACA_site795]” belongs 10.1 ± 0.014; to “TTTTCGGATAATAATTGTACGAAACATTTAAAAAAA [XGTACX_site8898]”, 8.28 ± 0.49; to “TATATAATATATATATGTACACATATACATTTTTAT [XGTACX_site2832]”, 8.95 ± 0.49.
Take “TAAATAGTTATAAAAGTGCAAAAAAAAAAAAAAAAA [GTGCAC_site9550]”: the “gcPBM binding intensity (ln)” value was determined as 8.47 ± 0.54.
To “ACTCAAAATTATAATTGTACAAATGCTTTGTTTAAT [XGTACX_site3437]” belongs 8.79 ± 0.36.
